The campaign covered roughly 100,000 compounds. About 250 (0.25%) were called active. The inconclusive results got no clear call from the source; some entries with a clear call stand among them for comparison. The call rests on the fitted dose curve; in most records, active means well fitted inhibition curve with a large enough effect; inconclusive means small, poorly fitted or top-dose-only effect; inactive means flat fitted curve, though single readings scatter. No potency is given beside an inconclusive call; the fits are too rough.
The compounds below were run against Alanine aminotransferase 2 (Homo sapiens) (UniProt Q8TD30) (assay: Primary qHTS assay for inhibitors of Glutamate pyruvate transaminase 2 (GPT2)). Settings: Recombinant GPT2, coupled pyruvate oxidase/HRP Amplex Red fluorescence; activity change, negative = inhibition: at 57.7 µM (top of the series) unless noted; series mostly up to 57.7 µM.
Chain of UniProt Q8TD30 (Q8TD30 whole entry, looked up): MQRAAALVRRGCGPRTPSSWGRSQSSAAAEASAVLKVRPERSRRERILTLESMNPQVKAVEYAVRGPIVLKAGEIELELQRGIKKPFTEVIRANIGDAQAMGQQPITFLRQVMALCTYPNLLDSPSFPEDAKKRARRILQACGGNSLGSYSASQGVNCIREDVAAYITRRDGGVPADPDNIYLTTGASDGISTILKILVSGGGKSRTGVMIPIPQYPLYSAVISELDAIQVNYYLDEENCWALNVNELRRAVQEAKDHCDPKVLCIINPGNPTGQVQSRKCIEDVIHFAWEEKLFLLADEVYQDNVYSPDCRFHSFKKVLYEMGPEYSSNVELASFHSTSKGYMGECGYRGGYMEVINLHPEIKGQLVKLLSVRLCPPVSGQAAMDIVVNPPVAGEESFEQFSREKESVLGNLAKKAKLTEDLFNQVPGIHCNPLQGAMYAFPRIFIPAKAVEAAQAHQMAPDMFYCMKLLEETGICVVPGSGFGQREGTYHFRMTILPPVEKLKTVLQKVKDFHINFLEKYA
How it was run: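 Fluorescence read-out: pyruvate from GPT2 turnover coupled to pyruvate oxidase, HRP and Amplex Red (0.2mM ThPP, 0.2U/mL PO and HRP, 50uM Amplex final). Substrates 250uM a-KG, 2mM L-alanine; enzyme 10ng/uL; 30 min RT.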
Further: nearly all actives have a fitted effect of over 60% in size.
On the % scale 0 is the no-effect control and ±100 the full control effect; potency means the concentration at half of the fitted maximal effect; tags describe the fitted curve by direction and shape.

Row | SMILES | Potency | outcome | activity change, negative = inhibition
1 | CCC1C(=O)N(C)CCN1C(=O)c1coc(COc2ccc3c(c2)OCO3)n1 (centres undefined) | inconclusive [inhibitor, single point] |  | 
2 | CN1C(=O)CS(=O)(=O)C12CCN(C(=O)c1cc(F)ccc1F)CC2 | inconclusive [inhibitor, single point] |  | 
3 | O=C1NCc2ccccc2CC12CCCN2Cc1ccc(Cl)cc1 (centres undefined) | inconclusive [inhibitor, full curve, poor fit] |  | 
4 | COc1cccc(-c2cc3c(ccn3Cc3cccnc3)c(C3=CCOCC3)n2)c1OC | inconclusive [inhibitor, single point] |  | 
5 | CC(C)n1cc2cc(C(=O)N3CCN(Cc4cccc(F)c4)CC3)sc2c1 | inconclusive [inhibitor, single point] |  | 
6 | C=CCN(C)C(=O)C[C@@H]1c2nc(NC(=O)c3c(F)cccc3F)sc2C[C@@H]2[C@](C)(CO)[C@H](O)CC[C@]21C |  | inactive | 
7 | O=c1c2c(n(Cc3cccnc3)n1-c1ccccc1)CN(CC1CC1)CC2 |  | inactive [at 88.5 µM] | 
8 | CN(C(=O)CN1C(=O)C(c2ccccc2)=NC12CCCCC2)c1ccccc1 |  | inactive | 
9 | CN(C)C(=O)c1ccc(-c2ncc3c(n2)OCCN(Cc2ccccc2)C3=O)cc1 | inconclusive [inhibitor, single point] |  | 
10 | O=C(Cc1cccc(Cl)c1)NC1CCC(Cc2cccc(-c3cccs3)c2)CC1 (centres undefined) | inconclusive [inhibitor, single point] |  | 
11 | CCOC(=O)C1CCCN(C(=O)c2cc3c(s2)CN(C2CCCC2)C3)C1 (centres undefined) |  | inactive | 
12 | COc1ccc(CNC(=O)CCC2CCCN(C(=O)CN3CCOC3=O)C2)c(OC)c1 (centres undefined) | inconclusive [inhibitor, single point] |  | 
13 | COc1ccc(-c2noc([C@@H](C)NC(=O)c3nc4ccccc4s3)c2C(=O)O)cc1 | inconclusive [inhibitor, single point] |  | 
14 | COc1cccc(-c2ccc(C(=O)N3CCC(N[S+](C)(=O)[O-])CC3)cc2)c1 | inconclusive [inhibitor, single point] |  | 
15 | Cc1c(NC(=O)N2CCOCC2)ccc2c1c1ccccc1n2C(C)C | inconclusive [inhibitor, single point] |  | 
16 | CC1=C[C@@H](CNS(=O)(=O)c2ccc(Cl)cc2)[C@H](C(C)C)C[C@H]1CC(=O)N1CCOCC1 | inconclusive [inhibitor, single point] |  | 
17 | COc1ccc(Cl)cc1[C@@]1(F)C(=O)Nc2cc(C(F)(F)F)ccc21 | inconclusive [inhibitor, partial curve, poor fit] |  | 
18 | O=C(c1cccc(OC2CN(Cc3cccc(F)c3F)C2)c1)N1CCOCC1 |  | inactive | 
19 | C=CCS(=O)(=O)N1CCCC(CCc2cccc(OC)c2)C1 (centres undefined) | inconclusive [inhibitor, single point] |  | 
20 | CCc1noc(-c2ccn3c(CNC(=O)Cc4ccccc4Cl)nnc3c2)n1 |  | inactive | 
21 | Cc1ccc(N2CC(c3noc(C4CCN(C(=O)c5ccccc5)CC4)n3)CC2=O)cc1 (centres undefined) |  | inactive | 
22 | CNC(=O)CCn1ncc2cc(OCc3ccccc3-c3cccnc3)ccc21 |  |  | inactive: -25.2% [at 88.5 µM]

Row | SMILES | Potency | outcome | activity change, negative = inhibition
23 | C#CCNC(=O)CC[C@H]1CNC(=O)[C@@H]2[C@@H](CCN2Cc2ncc[nH]2)N1C | inconclusive [inhibitor, partial curve, poor fit] |  | 
24 | O=C(COc1ccc(F)cc1)N1CCCC(c2noc(COc3ccccc3)n2)C1 (centres undefined) |  | inactive | 
25 | Cc1cc2c(-c3ccccc3)nc(-c3c(C)noc3C)cc2[nH]1 | inconclusive [inhibitor, partial curve, poor fit] |  | 
26 | c1cnc2nc(C3CCCN3)[nH]c2c1 (centres undefined) | inconclusive [inhibitor, partial curve, poor fit] |  | 
27 | O=c1[nH]c(=S)[nH]c(-c2ccccc2)c1Cc1c(O)ccc2ccccc12 | inconclusive [inhibitor, single point] |  | 
28 | O=C(c1cccs1)N1CCCC(Cc2noc(-c3cnccn3)n2)C1 (centres undefined) | inconclusive [inhibitor, partial curve, poor fit] |  | 
29 | CCc1c(-c2nc(C3CCOC3)no2)[nH]c2ccccc12 (centres undefined) |  | inactive | 
30 | Cn1ncc2c(C(=O)NCc3ccc(Cl)cc3)cc(-c3cccnc3)nc21 | inconclusive [inhibitor, single point] |  | 
31 | O=C(c1ccc(-c2cccs2)cc1)N1CCC(N[S+](=O)([O-])c2cccs2)CC1 | inconclusive [inhibitor, single point] |  | 
32 | O=C(N[C@@H]1CN(Cc2ccc(CO)o2)CCC[C@H]1O)c1ccc(OCc2ccccc2)cc1 | inconclusive [inhibitor, full curve] |  | 
33 | COC1CN(c2cccc(F)c2)C12CCN(C(=O)CC(C)C)CC2 (centres undefined) |  |  | inactive: -10.1%
34 | O=C(c1ccc(Nc2nccc(-c3cc4ccccc4s3)n2)cc1)N1CCC(N2CCCC2)CC1 | inconclusive [inhibitor, single point] |  | 
35 | C#CCO[C@@H]1CCN(S(=O)(=O)c2cccs2)[C@H](C(=O)N[C@H](C)C(N)=O)C1 | inconclusive [inhibitor, single point] |  | 
36 | CCc1nc(-c2c3n(c(=O)n(Cc4cccc(OC)c4)c2=O)CCCC3)no1 |  | inactive | 
37 | COc1ccc(-c2nnc(C[C@@H]3C[C@@H](C(C)C)[C@H](CN4CCN(c5ncccn5)CC4)C=C3C)o2)cc1 |  |  | inactive: -6.47%
38 | CN(C)c1ccc(NC(=O)Cn2nc3n(c2=O)CCCC3)cc1 | inconclusive [inhibitor, full curve, poor fit] |  | 
39 | O=C(c1ccc2c(c1)OCO2)N1CCC2(CC(c3cccc(C(F)(F)F)c3)=NO2)C1 (centres undefined) | inconclusive [inhibitor, single point] |  | 
40 | N#Cc1ccc(CN2CCc3ncc(C(=O)NCCOc4ccccc4)n3CC2)cc1 |  |  | inactive: -1.4% [at 88.5 µM]
41 | Cc1ccc(C(=O)NC2CCN(c3cc(-c4ccccc4)[nH]n3)C2)cc1C (centres undefined) | inconclusive [inhibitor, single point] |  | 
42 | COCCNC(=O)C1CCCN(c2nc3ncccc3o2)C1 (centres undefined) |  |  | inactive: -9.91% [at 88.5 µM]
43 | OC[C@H]1O[C@@H](Oc2cc(O)cc(C=Cc3ccc(O)cc3)c2)[C@H](O)[C@@H](O)[C@H]1O | inconclusive [inhibitor, partial curve, poor fit] |  | 
44 | Cc1cccc(NC(=O)c2cnc(-c3ccccc3)nc2-c2ccncc2)c1C | inconclusive [inhibitor, single point] |  | 

Row | SMILES | Potency | outcome | activity change, negative = inhibition
45 | COCC1CN(C)CC12CCN(S(=O)(=O)c1ccc(F)c(Cl)c1)CC2 (centres undefined) |  | inactive | 
46 | CCOc1ccc(Cl)cc1CN(C)c1cc(C2CC(O)C2)nc(N)n1 (centres undefined) |  |  | inactive: -16%
47 | CCCc1nc(C(=O)NC(CCn2cncn2)c2ccccc2)cs1 (centres undefined) | inconclusive [inhibitor, single point] |  | 
48 | COc1ccccc1CNC(=O)C1CCCN1Cc1ccc(-c2cc(C)cc(C)c2)cc1 (centres undefined) |  |  | inactive: 1.71%
49 | CN(Cc1nc(-c2ccncc2)no1)C1CCC2(CCNCC2)CC1 | inconclusive [inhibitor, partial curve, poor fit] |  | 
50 | O=C(Nc1cc(-c2ccccn2)nn1-c1ccccc1)c1ccccc1 |  |  | inactive: -9.12%
51 | Cc1ccc(CC2CCOC3(CCN(C(=O)c4cccc(C#N)c4)CC3)C2)cc1 (centres undefined) |  |  | inactive: -13.4%
52 | CC1=C(C(=O)N(C)C)C(c2ccc(Cl)cc2)N2C(CC(=O)NCC3CCCO3)=CSC2=N1 (centres undefined) |  | inactive | 
53 | Cc1noc(-c2ccc(OC(F)(F)F)cc2)c1C(=O)NCCC(c1ccccc1)c1ccccc1 | inconclusive [inhibitor, single point] |  | 
54 | Cc1cc(C[C@@H]2COC[C@@H]2NC(=O)c2cnc(Nc3ccccc3)nc2)on1 | inconclusive [inhibitor, single point] |  | 
55 | Cc1ccc(C(=O)N2CCC3(CC2)CC(N(Cc2ccc(F)cc2)C2CC2)CCO3)cn1 (centres undefined) |  |  | inactive: 1.3%
56 | CN(C)C(=O)C1CN(C(=O)Nc2cc(F)cc(F)c2)CC12CCOCC2 (centres undefined) |  | inactive | 
57 | CC(=O)O[C@@]12CO[C@@H]1C[C@H](O)[C@@]1(C)C(=O)[C@H](O)C3=C(C)[C@@H](OC(=O)[C@H](O)[C@@H](NC(=O)OC(C)(C)C)c4ccccc4)C[C@@](O)([C@@H](OC(=O)c4ccccc4)[C@H]21)C3(C)C | inconclusive [inhibitor, single point] |  | 
58 | O=C(Cc1ccsc1)N1CCC(Cc2nc(-c3ccc(F)cc3)no2)CC1 | inconclusive [inhibitor, single point] |  | 
59 | COC(=O)C1=COC(O[C@@H]2O[C@H](COC(=O)/C=C/c3ccc(O)cc3)[C@@H](O)[C@H](O)[C@H]2O)C2C(CO)=CCC12 (some centres undefined) | inconclusive [inhibitor, single point] |  | 
60 | CCCS(=O)(=O)N1CCC(N2CC(OCCOC)C23CCCCC3)CC1 (centres undefined) | inconclusive [inhibitor, single point] |  | 
61 | COc1ccc(NC(=O)c2nc3sccn3c2-c2cccc(C(F)(F)F)c2)cc1 | inconclusive [inhibitor, single point] |  | 
62 | Cc1nc(C(=O)NC2CC(c3cc(N4CCC(O)C4)ncn3)C2)cs1 (centres undefined) | inconclusive [inhibitor, single point] |  | 
63 | O=C(NCCCN1CCCc2ccccc21)c1ccc(N2CC3CC(C2)[C@H]2CCCC(=O)N2C3)nc1 (some centres undefined) | inconclusive [inhibitor, full curve, poor fit] |  | 
64 | COCC(NC(=O)c1csc(-c2cccs2)n1)c1ccnn1C (centres undefined) | inconclusive [inhibitor, single point] |  | 

From PubChem BioAssay AID1671188 (National Center for Advancing Translational Sciences (NCATS), 2021)
